Test results as given in a collection of fitness landscapes (doi:10.1126/science.1257360).
The other results are listed elsewhere or left out.

B1: PhoQ; a variant is named by its letters at X, in order, P23837 (parent)
chain: MKKLLRLFFPLSLRVRFLLATAAVVLVLSLAYGMVALIGYSVSFDKTTFRLLRGESNLFYTLAKWENNKLHVELPENIDKQSPTMTLIYDENGQLLWAQRDVPWLMKMIQPDWLKSNGFHEIEADVNDTSLLLSGDHSIQQQLQEVREDDDDAEMTHSVAVNVYPATSRMPKLTIVVVDTIPVELKSSYMVWSWFIYVLSANLLLVIPLLWVAAWWSLRPIEALAKEVRELEEHNRELLNPATTRELTSLVRNLNRLLKSERERYDKYRTTLTDLTHSLKTPLXXLQXXLRSLRSEKMSVSDAEPVMLEQISRISQQIGYYLHRASMRGGTLLSRELHPVAPLLDNLTSALNKVYQRKGVNISLDISPEISFVGEQNDFVEVMGNVLDNACKYCLEFVEISARQTDEHLYIVVEDDGPGIPLSKREVIFDRGQRVDTLRPGQGVGLAVAREITEQYEGKIVAGESMLGGARMEVIFGRQHSAPKDE

Variants of: B1
Experiment: enrichment ratio after two sorts for PhoP signalling (ratio (wild type AVST 3.29)); higher = more functional
Details: with PhoP (E. coli)

Variant	enrichment ratio
EFYM	≤ 0.25
IARW	≤ 0.25
IPRT	≤ 0.25
VQCL	≤ 0.25
TNDC	≤ 0.25
LMWM	≤ 0.25
QICR	≤ 0.25
IYQK	≤ 0.25
WPFC	≤ 0.25
QDPH	≤ 0.25
GSED	≤ 0.25
RQKN	≤ 0.25
IEWN	4.75
HKQM	≤ 0.25
SRGW	2.5
DRFR	≤ 0.25
DTKL	≤ 0.25
NRSY	≤ 0.25
KGKI	≤ 0.25
HMQL	≤ 0.25
PKRA	≤ 0.25
IKAG	≤ 0.25
MGQL	≤ 0.25
DVQT	≤ 0.25
KQGY	≤ 0.25
IRMC	≤ 0.25

Variant	enrichment ratio
SGSS	9.97
VHSF	≤ 0.25
VRLK	1.06
TWLL	≤ 0.25
GPFW	≤ 0.25
PDQY	≤ 0.25
IKCR	≤ 0.25
PDLC	0.919
DHAQ	≤ 0.25
TPPL	≤ 0.25
KRTW	≤ 0.25
ANFP	≤ 0.25
NYFQ	≤ 0.25
KQMC	≤ 0.25
WPPI	≤ 0.25
FAEI	≤ 0.25
GRPH	≤ 0.25
MDSP	1.12
TLPS	≤ 0.25
HNRP	≤ 0.25
SVYT	≤ 0.25
VPMP	≤ 0.25
MAQA	≤ 0.25
WVDW	≤ 0.25
QTAY	≤ 0.25
KSNE	≤ 0.25

Variant	enrichment ratio
RSDV	≤ 0.25
NLEP	≤ 0.25
RAHV	≤ 0.25
READ	≤ 0.25
LKVE	≤ 0.25
PTPN	≤ 0.25
GNFM	≤ 0.25
ITNP	≤ 0.25
EELY	≤ 0.25
HVYH	≤ 0.25
VDAK	≤ 0.25
WEQV	≤ 0.25
HWHL	≤ 0.25
MWPP	≤ 0.25
DNDH	≤ 0.25
APAL	≤ 0.25
DRRF	≤ 0.25
KEKY	≤ 0.25
RLDR	≤ 0.25
ADCT	≤ 0.25
KSDE	≤ 0.25
QWHF	≤ 0.25
VFKM	≤ 0.25
SMQS	0.676
IVHY	≤ 0.25
FMCH	≤ 0.25

Variant	enrichment ratio
MPVQ	≤ 0.25
VQFL	≤ 0.25
LCLN	0.259
YHRK	≤ 0.25
KYPR	≤ 0.25
KDGY	≤ 0.25
PWML	≤ 0.25
KQYG	≤ 0.25
YMQL	≤ 0.25
NAKA	≤ 0.25
SEAN	5.01
TNTF	≤ 0.25
NDWY	≤ 0.25
IHYE	≤ 0.25
NYCG	≤ 0.25
IAPW	≤ 0.25
WSCE	≤ 0.25
EMQT	≤ 0.25
PCKW	≤ 0.25
LHEL	≤ 0.25
PSTP	≤ 0.25
MWAT	≤ 0.25
LFRI	≤ 0.25
FNRY	≤ 0.25
PPVQ	≤ 0.25
GGCL	8.88

Variant	enrichment ratio
TCSW	1.85
IITT	≤ 0.25
TMYM	≤ 0.25
MWCW	≤ 0.25
ESNS	≤ 0.25
YPAV	≤ 0.25
VQYE	≤ 0.25
ITCQ	≤ 0.25
KGGS	≤ 0.25
PTIC	≤ 0.25
WSKK	≤ 0.25
NGSI	≤ 0.25
QLHK	≤ 0.25
FEYT	≤ 0.25
WNHC	≤ 0.25
NKYG	≤ 0.25
PITI	≤ 0.25
HEAI	≤ 0.25
MFAA	≤ 0.25
IEWL	≤ 0.25
TKRF	≤ 0.25
AIVI	13
HRMA	≤ 0.25
HFPP	≤ 0.25
CILG	≤ 0.25
LVLD	≤ 0.25

Variant	enrichment ratio
RTTP	≤ 0.25
RKYK	≤ 0.25
IRNW	≤ 0.25
QIKF	≤ 0.25
NQIW	≤ 0.25
LVIK	0.67
YWNF	≤ 0.25
HTLP	≤ 0.25
FYYC	≤ 0.25
WVRF	≤ 0.25
TTHT	1.22
FCRF	≤ 0.25
FIPP	≤ 0.25
YHLI	≤ 0.25
PTIL	≤ 0.25
DSLC	≤ 0.25
PWSN	≤ 0.25
NPRL	≤ 0.25
TVRG	≤ 0.25
LAII	≤ 0.25
FPPM	≤ 0.25
PDDS	≤ 0.25
ERQK	≤ 0.25
